According to the supplement of paper PMC11417369:
± gives the standard deviation of the averaged measurements. The list shows a part of the results.

Each sequence was assayed on PfAP2-G AP2 domain (GST-tagged) (assay: gcPBM binding intensity (ln(normalized median fluorescence intensity)); higher = stronger DNA binding).
How it was run: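 Using an Agilent 4 × 180k array, primer-extended double-stranded 36-bp intergenic genomic probes and negative controls were exposed for 1 h to GST-fused P. falciparum DNA-binding domains expressed in E. coli. Binding was carried out in 1× PBS with 1% milk, 0.2 mg/ml BSA, 0.5% salmon testes DNA and 0.03% Triton X-100, and protein was detected with Alexa488 anti-GST antibody and a 488 nm scan. Binding intensity is the highest Masliner-normalised natural-log median intensity across replicate spots of either probe orientation.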
With “TTAAATAAAAAAATAACACACATATAAATCTATATG [CACACA_site7482]” the “gcPBM binding intensity (ln)” value was 9.795 ± 0.035.
With “AATACGTTTCAAAAATGTACACATATATCATAAATA [XGTACX_site8962]” the “gcPBM binding intensity (ln)” value was 11.3 ± 0.94.
With “ATCAAAAATGTTATATATATATATATATATATATAT [TGCATGCA_negctrl_site71]” the “gcPBM binding intensity (ln)” value was 10 ± 0.83.
In the case of “TCTTCAAAGACACAATCACACACATACATAAATATA [CACACA_site8128]”, the “gcPBM binding intensity (ln)” value is reported as 10 ± 0.17.
“AGAATTAAAAACAGTTGTACAAAAAGTTGTATAAAT [XGTACX_site411]” was tested, and the “gcPBM binding intensity (ln)” value was 11.1 ± 0.44.
In the case of “AACTTGTATTTATACACACACACACTAGCTTTTTTT [CACACA_site5132]”, the “gcPBM binding intensity (ln)” value is reported as 10.14 ± 0.092.
For “TTAAAAATCATTTAAGAACACACAAATATTTCCATT [CACACA_site8418]”, the “gcPBM binding intensity (ln)” value was 9.78 ± 0.23.
In the case of “AGTAATAAATTTTATACATGCATAAAAAAAAAAAAA [TGCATGCA_site661]”, the “gcPBM binding intensity (ln)” value is reported as 9.72 ± 0.27.
“TATAGCTTTCATTATACACACATCAAAAATTTAAAT [CACACA_site227]” was tested, and the “gcPBM binding intensity (ln)” value was 10.1 ± 0.16.
In the case of “GACTCATTAAGGATTATTCCTAATGATCAAAAGAAC [CACACA_negctrl_site515]”, the “gcPBM binding intensity (ln)” value is reported as 9.9 ± 0.11.
In the case of “TATATTTATTTTTAATGTACATATTTAAGAAAACTA [XGTACX_site4920]”, the “gcPBM binding intensity (ln)” value is reported as 11.3 ± 0.81.
“TATTAATTATAAGATGCATGTGCAAAAATATGTTCC [TGCATGCA_site51]” was tested, and the “gcPBM binding intensity (ln)” value was 9.87 ± 0.11.
“TAAAAATTAAAAAGGGTGCAAAAAAAAAAAAAAAAA [GTGCAC_site9733]” was tested, and the “gcPBM binding intensity (ln)” value was 10.1 ± 0.69.
With “TTTCTTTGTATTTATAGTACATATTTTAATAACTGC [XGTACX_site6673]” the “gcPBM binding intensity (ln)” value was 11.1 ± 0.76.
“ATAATATTTTATTATACATGCAAATTATTATATATA [TGCATGCA_site40]” was tested, and the “gcPBM binding intensity (ln)” value was 9.34 ± 0.35.
For “ATATTTTTTTTTTTCACACACATTTATATTGTATTA [CACACA_site5695]”, the “gcPBM binding intensity (ln)” value was 9.985 ± 0.049.
“AGAAAAAAGAGGGATACACACAAACATATATTTATA [CACACA_site7122]” was tested, and the “gcPBM binding intensity (ln)” value was 9.96 ± 0.057.
In the case of “TTTCCGGTAATATGGAGATATATGTGGGTTTTTTTT [GTGCAC_negctrl_site374]”, the “gcPBM binding intensity (ln)” value is reported as 9.94 ± 0.099.
“ACAAAATTTACAAAATGTACAAAGTATGTGTTTTAT [XGTACX_site6462]” was tested, and the “gcPBM binding intensity (ln)” value was 10.7 ± 0.36.
In the case of “TATATATATTTATGTACACACATATATACCTTTCAT [CACACA_site5479]”, the “gcPBM binding intensity (ln)” value is reported as 11.4 ± 0.86.
With “CACCCTTTGTTTTAGAGTACATATGTATATACGTAA [XGTACX_site7964]” the “gcPBM binding intensity (ln)” value was 11.4 ± 0.83.
For “ATTATATTAATTTATAGTACAATATTTATATATATG [XGTACX_site4668]”, the “gcPBM binding intensity (ln)” value was 11 ± 0.59.
“TATATATTACTTTTTTGTACGAATTTTACAACTACG [XGTACX_site3473]” was tested, and the “gcPBM binding intensity (ln)” value was 11 ± 0.54.
In the case of “AAAAAAAAAAAAAAAAAAAGAAAAGAAAATAGGGTT [GTGCAC_negctrl_site421]”, the “gcPBM binding intensity (ln)” value is reported as 10.5 ± 0.38.
With “TATTAAAATATTCTCACACACCAAAATATGTATGTA [CACACA_site6565]” the “gcPBM binding intensity (ln)” value was 9.68 ± 0.071.
For “TTCAAAGACACAATCACACACATACATAAATATACA [CACACA_site687]”, the “gcPBM binding intensity (ln)” value was 10.1 ± 0.28.
TTCCAAGAAATAATAGTGCATTATTCATTTTAATAA was tested, and the “gcPBM binding intensity (ln)” value was 9.97 ± 0.31.
“AGGAGGAACAAACAAAACAATAAAAATTATAATAAA [GTGCAC_negctrl_site206]” was tested, and the “gcPBM binding intensity (ln)” value was 9.875 ± 0.092.
With “AAAAGACATTTTTTTTTATAAATACACACGTACGTG [TGCATGCA_negctrl_site281]” the “gcPBM binding intensity (ln)” value was 11.1 ± 0.72.
With “AATATACATAACAAGGTGCAAAAAATATTGTTCATA [GTGCAC_site9499]” the “gcPBM binding intensity (ln)” value was 10.1 ± 0.11.
In the case of “TTATTATTATGATTATTATGATGATTATACAACTGT [TGCATGCA_negctrl_site241]”, the “gcPBM binding intensity (ln)” value is reported as 9.79 ± 0.21.
With “TAAAACAGAATGAGGAGTACAAAAAGAAGAAAAGGG [XGTACX_site1246]” the “gcPBM binding intensity (ln)” value was 11.6 ± 0.93.
With “AAAATAAATATTACATGTACATATATATATATATAT [XGTACX_site8492]” the “gcPBM binding intensity (ln)” value was 11 ± 0.44.
“AGAGGAAAAATAAAAGGAAAAAAGAAAATAATATTG [CACACA_negctrl_site852]” was tested, and the “gcPBM binding intensity (ln)” value was 9.745 ± 0.007.
In the case of “ATATATTACAATATATGTACTTAATTTGCTTAAATA [XGTACX_site7912]”, the “gcPBM binding intensity (ln)” value is reported as 11.3 ± 0.85.
“ATAATATTTTAGAGCAGTACACTTTTATATTTATTG [XGTACX_site5728]” was tested, and the “gcPBM binding intensity (ln)” value was 11.1 ± 0.71.
“GTAATCCACAAACACACACACATACACATATATATA [CACACA_site2728]” was tested, and the “gcPBM binding intensity (ln)” value was 10.2 ± 0.18.
In the case of “ATCATTTTTAATAAATGTACAAGTTTTAAAAAAAAA [XGTACX_site7340]”, the “gcPBM binding intensity (ln)” value is reported as 11 ± 0.69.
“AAAAAAACAACATGCACACGCACACCCAAAAAAAGC [CACACA_site72]” was tested, and the “gcPBM binding intensity (ln)” value was 10.4 ± 0.13.
For “GTGTATTTTGTGCGCACACACATGCAAAAAGAAATA [CACACA_site6660]”, the “gcPBM binding intensity (ln)” value was 11 ± 0.69.
In the case of “AAAAAAAATTAAGCATGTATAAATATATATATATAT [CACACA_negctrl_site1540]”, the “gcPBM binding intensity (ln)” value is reported as 9.86 ± 0.5.
In the case of “TTTTACAAGTATTGATAAATAAGAAATATATAAAAT [CACACA_negctrl_site529]”, the “gcPBM binding intensity (ln)” value is reported as 9.97 ± 0.12.
“GGTAGGTGAATATATACACACATATATTATATATAT [CACACA_site1984]” was tested, and the “gcPBM binding intensity (ln)” value was 10.01 ± 0.078.
For “TACACATGTTTAAAATGTACGTTTTATAACACACAC [XGTACX_site8229]”, the “gcPBM binding intensity (ln)” value was 11.3 ± 0.82.
